From PubChem BioAssay (NCATS)
Inconclusive results, whose numbers are uncertain, are shown with a selection of clear calls. For some of these results: Potencies beside an inconclusive call are fits to weak or partial responses and may not hold up. For some of these results: A note “side channel” means that the fit belongs to a control or component signal, not to the main read-out. Calls of active or inactive are those of the source. Unless noted, calls come from the whole dose curve; as a rule, active = well fitted curve in the direction sought with a large enough effect; inconclusive = small, poorly fitted or top-dose-only effect, or another doubt; inactive = no such curve, though single readings can be large; an effect the other way counts as inactive or inconclusive.

Columns and labels:
[1] = Cell Viability - SK-N-SH (AID 435; calls by dose curve;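 note: potency is the fitted concentration of half-maximal effect; compound exposure lasted 40 h at 37 °C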); conditions: SK-N-SH neuroblastoma cell viability qHTS
How it was run: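 Luminescent ATP signal served as the viability read-out after 40 hours of compound treatment of human neuroblastoma SK-N-SH cells. Concentration-response data, scaled between DMSO and 100 uM tamoxifen, gave AC50 values by standard Hill modeling.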

[2] = Cell Viability - NIH 3T3 (AID 541); conditions: NIH 3T3 cell viability, qHTS; activity change, negative = cytotoxicity: at 92.2 µM (top of the series);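 note: plate controls were DMSO alone for no effect and tamoxifen positive control for full effect; nearly all actives have a fitted effect of over 25% in size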
How it was run: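 Luminescent ATP signal (CellTiter-Glo) served as the viability read-out after NIH 3T3 cells were exposed to compounds over a concentration range for 40 hr at 37 °C. Hill-equation modelling of concentration-response data gave AC50.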

[3] = Cell Viability - HUV-EC-C (AID 542); note: potency is the fitted concentration of half-maximal effect; nearly all actives have a fitted effect of over 35% in size
How it was run: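 qHTS cytotoxicity: HUV-EC-C, 1000 cells/well, 5 hr settle, compound 40 hr 37 °C, CellTiter-Glo, luminescence. AC50 via Hill equation.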

[4] = MultiTox-Fluor Cytotoxicity Assay - LYMP1-002 - Dead Cells (AID 960); conditions: LYMP1-002 lymphoblastoid cells, dead-cell protease fluorescence; cytotoxicity (dead cells): at 46.1 µM (top of the series); note: potency is the fitted concentration of half-maximal effect; nearly all actives have a fitted effect of over 60% in size
How it was run: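 LYMP1-002 cells 2500/well; 5 hr 37 C pre-incubation; compound 16 hr 37 C; MultiTox-Fluor reagent 60 min RT; dead-cell fluor Ex/Em 485/520. Norm. to DMSO (0%) vs 15 uM tetraoctylammonium bromide (100%); Hill AC50.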

[5] = Cell Viability - LYMP2-005 (AID 967);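 note: plate controls were DMSO only for no effect and 92 µM tetraoctylammonium bromide control for full effect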
How it was run: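 Acute cytotoxicity is scored as a concentration-dependent drop in intracellular ATP in human lymphoblastoid LYMP2-005 cells after 24 h compound treatment. ATP is quantified by luciferase luminescence, and AC50 is derived by Hill-equation modelling.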

[6] = Cell Viability - LYMP2-014 (AID 983);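 note: plate controls were DMSO only for no effect and 92 µM tetraoctylammonium bromide for full effect; nearly all actives have a fitted effect of over 50% in size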
How it was run: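 Luminescent ATP signal (CellTiter-Glo, 30 min at room temperature) serves as the viability read-out after 24 hr compound exposure at 37 C. Cells were seeded at 2500 per well and settled 5 hr beforehand.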

[7] = Cell Viability - LYMP2-026 (AID 989); note: % is set by controls: 0 for no effect and ±100 for the full control effect; nearly all actives have a fitted effect of over 50% in size
How it was run: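 Luminescent ATP signal (CellTiter-Glo, 30 min room temperature) measures viable lymphoblastoid cells after 24 hr compound treatment at 37 C. Decreased ATP reflects acute toxicity; AC50 values come from Hill-equation modeling.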

[8] = biological target: Bile acid receptor (Homo sapiens) (UniProt Q96RI1); assay: qHTS assay for small molecule agonists of farnesoid X receptor signaling (AID 588527; calls by dose curve; note: potency is the fitted concentration of half-maximal effect); conditions: HEK293T FXR-UAS-bla, beta-lactamase ratio, 16 h; activation: active compounds read high
How it was run: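 FXR-UAS-bla HEK293T cells (10% dialyzed FBS) preincubated 5-7 h at 37 C, then compounds at up to 92 uM for 16 h at 37 C. CCF4 beta-lactamase read-out after 2 h RT. Normalized to chenodeoxycholic acid (100 uM) and DMSO; Hill fit gave EC50 and efficacy.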

[9] = biological target: Peroxisome proliferator-activated receptor gamma (Homo sapiens) (UniProt P37231); assay: qHTS assay for small molecule antagonists of peroxisome proliferator-activated receptor gamma signaling (AID 588537; active = well fitted inhibition curve with a large enough effect in the signal ratio, with a control signal flat, not every such curve was filed as active; inconclusive = small, poorly fitted or top-dose-only effect, or effect the other way, or a change in a side signal; the % refers to the signal ratio;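 note: reporter cells co-stimulated with 50 nM rosiglitazone agonist during compound treatment; potency is the fitted concentration of half-maximal effect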); conditions: HEK293 PPARg-UAS-bla, beta-lactamase ratio, antagonist mode; activity, negative = inhibition: at 76.8 µM (top of the series)
How it was run: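 We seeded GeneBLAzer HEK293 reporter cells at 3000 per well, allowed 6-6.5 h attachment at 37 C, then co-treated with test compound titrations and 50 nM rosiglitazone overnight (16 h). Inhibition was quantified from 460/530 nm emission ratios.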

[10] = biological target: Vitamin D3 receptor (Homo sapiens) (UniProt P11473); assay: qHTS assay for small molecule agonists of vitamin D receptor signaling (AID 588543; calls by dose curve;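 note: 0% = DMSO basal and 100% = reference agonist control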); conditions: HEK293T VDR-UAS-bla, beta-lactamase ratio, 16 h; activation: at 76.8 µM (top of the series)
Chain of UniProt P11473 (P11473 whole entry, looked up): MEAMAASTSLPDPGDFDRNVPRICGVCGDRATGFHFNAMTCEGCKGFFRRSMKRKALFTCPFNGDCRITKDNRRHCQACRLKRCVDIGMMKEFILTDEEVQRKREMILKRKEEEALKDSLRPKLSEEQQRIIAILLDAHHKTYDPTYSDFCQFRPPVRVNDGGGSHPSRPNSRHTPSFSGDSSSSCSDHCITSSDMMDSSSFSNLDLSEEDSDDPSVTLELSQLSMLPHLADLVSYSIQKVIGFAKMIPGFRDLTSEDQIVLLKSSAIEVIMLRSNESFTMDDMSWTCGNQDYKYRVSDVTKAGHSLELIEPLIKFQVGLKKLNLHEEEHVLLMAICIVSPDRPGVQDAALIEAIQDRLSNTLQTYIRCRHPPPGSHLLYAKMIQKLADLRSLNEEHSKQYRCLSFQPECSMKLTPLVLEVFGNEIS
How it was run: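 Reporter cells (HEK293T, VDR-UAS-bla) were seeded in medium with 2% charcoal-stripped serum and incubated 5 h, then compounds in concentration series were added for 16 h at 37 °C. Stimulation was scaled between DMSO basal and 50 nM 1α,25-dihydroxyvitamin D3.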

[11] = biological target: Retinoic acid receptor RXR-alpha (Homo sapiens) (UniProt P19793); assay: qHTS assay for small molecule agonists of retinoid X receptor alpha signaling (AID 588544; calls by dose curve; note: potency is the fitted concentration of half-maximal effect); conditions: HEK293T RXRa-UAS-bla, beta-lactamase reporter, 18 h; activation: at 76.7 µM (top of the series) unless noted
Chain of UniProt P19793 (P19793 whole entry, looked up): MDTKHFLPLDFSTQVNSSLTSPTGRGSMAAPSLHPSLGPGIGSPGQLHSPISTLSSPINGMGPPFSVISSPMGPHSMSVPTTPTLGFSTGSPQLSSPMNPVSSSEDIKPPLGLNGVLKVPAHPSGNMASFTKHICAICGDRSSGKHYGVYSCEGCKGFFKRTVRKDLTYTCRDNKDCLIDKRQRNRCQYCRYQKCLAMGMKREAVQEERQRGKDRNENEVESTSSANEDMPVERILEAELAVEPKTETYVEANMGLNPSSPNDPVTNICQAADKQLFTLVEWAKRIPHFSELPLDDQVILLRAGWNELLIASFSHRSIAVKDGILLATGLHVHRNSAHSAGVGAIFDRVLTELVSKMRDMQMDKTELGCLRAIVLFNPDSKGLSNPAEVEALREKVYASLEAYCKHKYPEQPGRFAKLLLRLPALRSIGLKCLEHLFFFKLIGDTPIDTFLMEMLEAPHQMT

[12] = biological target: Thyroid hormone receptor beta (Homo sapiens) (UniProt P10828); assay: qHTS assay for small molecule antagonists of thyroid hormone receptor beta signaling (AID 588547; active = well fitted inhibition curve with a large enough effect in the signal ratio, with a control signal flat, not every such curve was filed as active; inconclusive = small, poorly fitted or top-dose-only effect, or effect the other way, or a change in a side signal; the % refers to the signal ratio;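 note: cells stimulated with 0.4 nM T3 agonist during compound exposure; % is set by controls: 0 for no effect and ±100 for the full control effect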); conditions: TR-UAS-bla HEK293, beta-lactamase ratio, antagonist mode, 18 h
Chain of UniProt P10828 (P10828 whole entry, looked up): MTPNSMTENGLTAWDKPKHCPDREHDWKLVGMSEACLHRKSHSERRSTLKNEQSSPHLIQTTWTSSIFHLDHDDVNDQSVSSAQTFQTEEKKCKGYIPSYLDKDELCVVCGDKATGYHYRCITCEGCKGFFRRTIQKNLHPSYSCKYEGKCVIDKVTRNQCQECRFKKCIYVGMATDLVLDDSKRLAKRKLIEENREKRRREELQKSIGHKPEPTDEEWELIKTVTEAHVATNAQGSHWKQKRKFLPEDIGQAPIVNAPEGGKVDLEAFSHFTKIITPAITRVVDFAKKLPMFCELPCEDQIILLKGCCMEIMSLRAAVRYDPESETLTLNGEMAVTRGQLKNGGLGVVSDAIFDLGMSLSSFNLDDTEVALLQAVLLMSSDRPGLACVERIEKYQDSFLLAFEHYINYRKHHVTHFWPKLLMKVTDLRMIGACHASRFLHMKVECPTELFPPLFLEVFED
How it was run: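 TR-UAS-bla GripTite HEK293 cells in 2% charcoal/dextran FBS medium were preincubated 4 h at 37 C, given compound (0.59 nM to 92 uM) plus 0.4 nM T3 (final) for 18 h, then CCF4 for 2 h at RT; Hill fit gave IC50.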

[13] = qHTS assay for small molecule agonists of the antioxidant response element (ARE) signaling pathway (AID 651741; active = well fitted activation curve with a large enough effect in the signal ratio; inconclusive = small, poorly fitted or top-dose-only effect, or effect the other way, or a change in a side signal; the % refers to the signal ratio; note: potency is the fitted concentration of half-maximal effect); conditions: HepG2 ARE-bla reporter, beta-lactamase FRET ratio, 16 h; activation: at 96 µM (top of the series) unless noted
How it was run: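 Compounds in DMSO are pinned onto HepG2 ARE-bla cells (2,000/well) that were preincubated 5 h; plates stay 16 h at 37 C, then beta-lactamase activity is detected with LiveBLAzer B/G substrate by fluorescence.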

[14] = biological target: Tumor necrosis factor (Homo sapiens) (UniProt P01375); assay: qHTS assay to identify small molecules that stimulate Tumor Necrosis Factor-alpha (TNF-alpha) secretion (AID 651757; active = well fitted curve in the direction sought with a large enough effect in the signal ratio; inconclusive = small, poorly fitted or top-dose-only effect, or a change in a side signal; inactive = no such curve, though single readings can be large or run the other way; the % refers to the signal ratio; note: 0% is about no effect); conditions: Human cells, HTRF 665/615 ratio; activation (TNF-alpha secretion): at 92.2 µM (top of the series)
Chain of UniProt P01375 (P01375 whole entry, looked up): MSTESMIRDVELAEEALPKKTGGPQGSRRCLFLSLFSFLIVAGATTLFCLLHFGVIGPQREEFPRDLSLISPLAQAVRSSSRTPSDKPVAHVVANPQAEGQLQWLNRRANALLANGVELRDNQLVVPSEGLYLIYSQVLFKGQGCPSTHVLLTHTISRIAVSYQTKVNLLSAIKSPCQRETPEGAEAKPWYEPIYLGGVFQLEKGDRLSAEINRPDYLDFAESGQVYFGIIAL
How it was run: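 Read-out is HTRF, a TR-FRET sandwich of cryptate- and XL665-labeled anti-TNF-alpha antibodies detecting cytokine secreted by THP-1 cells. Cells had been incubated with test compounds at 37 C for 17 hrs beforehand.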

[15] = qHTS assay to identify small molecules that stimulate interleukin-8 (IL-8) secretion (AID 651758; active = well fitted activation curve with a large enough effect in the signal ratio; inconclusive = small, poorly fitted or top-dose-only effect, or effect the other way, or a change in a side signal; the % refers to the signal ratio; note: potency is the fitted concentration of half-maximal effect); conditions: HTRF ratio (665/615); activation: at 92.2 µM (top of the series)
How it was run: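 THP-1, 2000 cells/well; cpd 16 h, 37 C; add cryptate + XL665 anti-IL-8 Abs; RT 1-3 h; TR-FRET read.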

[16] = qHTS assay for small molecule agonists of the antioxidant response element (ARE) signaling pathway measured by Nrf2-dependant transcriptional activity (AID 720636; active = well fitted curve in the direction sought with a large enough effect in the repeat runs; inconclusive = weak or mixed curves; inactive = no such curve, though single readings can be large; an effect the other way counts as inactive or inconclusive; note: potency is the fitted concentration of half-maximal effect)
How it was run: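 HepG2 ARE-luc reporter line, 1% dialyzed FBS; 6 hr attachment at 37 C, compound pinned in, 16 hr at 37 C/5% CO2; ONE-Glo, 30 min RT, luminescence read.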

[17] = biological target: Nuclear receptor subfamily 1 group I member 3 (Homo sapiens) (UniProt Q14994); assay: Primary qHTS for agonist of constitutive androstane receptor (CAR) against the NCATS DSHEA and TCM libraries (AID 1794839); note: potency is the fitted concentration of half-maximal effect
Chain of UniProt Q14994 (Q14994 whole entry, looked up): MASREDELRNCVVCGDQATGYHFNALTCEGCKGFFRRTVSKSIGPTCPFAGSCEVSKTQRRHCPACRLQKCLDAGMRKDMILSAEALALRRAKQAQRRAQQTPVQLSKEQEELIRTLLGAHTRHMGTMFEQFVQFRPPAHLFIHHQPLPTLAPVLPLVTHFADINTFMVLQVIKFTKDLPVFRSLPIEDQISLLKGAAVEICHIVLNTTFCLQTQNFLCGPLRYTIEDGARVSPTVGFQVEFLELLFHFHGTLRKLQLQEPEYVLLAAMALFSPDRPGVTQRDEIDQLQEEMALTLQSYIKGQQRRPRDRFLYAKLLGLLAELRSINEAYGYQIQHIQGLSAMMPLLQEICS
How it was run: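 qHTS, agonist mode: HepG2-CYP2B6-hCAR, 2,500 cells/well, 5 h attach; cpds + PK11195 0.75 µM final; 24 h, 37 °C, 5% CO2. Readouts: CellTiter-Fluor (405/540 nm), then ONE-Glo luminescence.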

[18] = biological target: Cytochrome P450 2C19 (Homo sapiens) (UniProt P33261); assay: qHTS for inhibitors of CYP2C19 against the NCATS DSHEA and TCM libraries (AID 1919974);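 note: luminescence from luciferin released by CYP2C19 oxidation of a pro-luciferin substrate; potency is the fitted concentration of half-maximal effect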
Chain of UniProt P33261 (P33261 whole entry, looked up, canonical isoform): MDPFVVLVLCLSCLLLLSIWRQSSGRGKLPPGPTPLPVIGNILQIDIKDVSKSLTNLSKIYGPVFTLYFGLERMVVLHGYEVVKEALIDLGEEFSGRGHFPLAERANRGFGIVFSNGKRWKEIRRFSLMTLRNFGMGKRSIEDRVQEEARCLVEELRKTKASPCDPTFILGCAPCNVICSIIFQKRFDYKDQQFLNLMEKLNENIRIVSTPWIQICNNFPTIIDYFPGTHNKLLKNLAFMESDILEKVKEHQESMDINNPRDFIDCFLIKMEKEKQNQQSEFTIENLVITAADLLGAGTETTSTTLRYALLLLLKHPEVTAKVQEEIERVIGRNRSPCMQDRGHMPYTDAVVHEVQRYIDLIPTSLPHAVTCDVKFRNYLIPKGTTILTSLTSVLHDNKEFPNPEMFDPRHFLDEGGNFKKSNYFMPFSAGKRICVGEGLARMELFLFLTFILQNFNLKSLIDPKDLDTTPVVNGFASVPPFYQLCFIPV
How it was run: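 Read-out is luminescence after P450-Glo detection (30 min, RT). Before that: 15 min compound–enzyme preincubation, then 30-45 min reaction with 1x NADPH regeneration solution, substrate concentration isoform-specific.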

[19] = biological target: Nuclear receptor subfamily 1 group I member 2 (Homo sapiens) (UniProt O75469); assay: Dual reporter qHTS for agonist of Pregnane X Receptor (hPXR) against the NCATS DSHEA and TCM libraries: Luminescence readout (AID 1920059); note: potency is the fitted concentration of half-maximal effect
Chain of UniProt O75469 (O75469 whole entry, looked up): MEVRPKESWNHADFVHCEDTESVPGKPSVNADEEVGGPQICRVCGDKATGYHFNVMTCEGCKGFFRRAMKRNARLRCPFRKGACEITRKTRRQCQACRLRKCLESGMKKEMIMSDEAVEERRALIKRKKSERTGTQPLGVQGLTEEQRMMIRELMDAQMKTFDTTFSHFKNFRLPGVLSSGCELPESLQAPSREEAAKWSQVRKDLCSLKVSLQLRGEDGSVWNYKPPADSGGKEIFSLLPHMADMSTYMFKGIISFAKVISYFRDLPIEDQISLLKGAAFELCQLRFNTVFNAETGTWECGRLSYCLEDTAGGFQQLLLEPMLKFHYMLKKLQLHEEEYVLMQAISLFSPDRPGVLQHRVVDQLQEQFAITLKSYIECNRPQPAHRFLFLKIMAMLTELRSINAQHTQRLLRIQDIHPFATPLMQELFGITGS
How it was run: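 hPXR-LucHepG2 cells in phenol red-free DMEM with 5% charcoal-stripped FBS, 2000 cells/well, attached 5 h, then exposed 24 h at 37C to compounds; rifampicin as positive agonist control (2.8 nM–92 uM). Luciferase luminescence read.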
Tags give direction and shape of the fitted curve or compound fluorescence and quenching.

COc1ccc(/C=C/c2cc(OC)cc(=O)o2)cc1
active: Potency [13] 1.88 µM | Potency [15] 66.8 µM | Potency [17] 14.1 µM
inactive: Potency [1] > 92 µM | activity change, negative = cytotoxicity [2] -15.1% | Potency [5] | Potency [6] | Potency [7] | Potency [10] | activity change % (negative = inhibition) [12] -10.8%
inconclusive: Potency [3] 50.1 µM [falling, partial curve] | Potency [4] 39.8 µM [cytotoxic, single point] | Potency [8] 22.4 µM [side channel, rising, partial curve, poor fit] | Potency [9] 44.7 µM [fluorescent, side channel, single point] | Potency [11] 39.8 µM [fluorescent, side channel, partial curve] | activation (TNF-alpha secretion) [14] -0.319% | Potency [16] 2.98 µM [activator, full curve, poor fit] | Potency [18] 25.1 µM [inhibitor, partial curve] | Potency [19] 22.4 µM [activator, partial curve]
